From the antibiotic and cytotoxicity screens of Wong et al. (2023)
Some of the results follow.

How the values were obtained:
HSkMC = human skeletal muscle cells; test: cytotoxicity call (relative viability < 0.9); conditions: 10 µM
HepG2 = test: cytotoxicity call (relative viability < 0.9); conditions: 10 µM
S. aureus RN4220 = test: growth inhibition call (relative growth <= 0.2); conditions: 50 µM

SMILES | cytotoxicity call (HSkMC) | cytotoxicity call (HepG2) | growth inhibition call (S. aureus RN4220)
CC(C)C(N)C(=O)OCC(CO)OCn1cnc2c(=O)[nH]c(N)nc21.Cl (stereo not given) | inactive | inactive | inactive
O=C1c2cccc(O)c2C(=O)c2c(O)cccc21 | inactive | active | inactive
COc1ccc(CN(C)C[C@@H]2OCCCC[C@H](C)Oc3ccc(NC(=O)Cc4ccccc4)cc3C(=O)N([C@@H](C)CO)C[C@H]2C)cc1 | inactive | inactive | inactive
CO[C@@H](CN(C)C(=O)c1ccc2c(c1)OCO2)[C@@H](C)CN([C@@H](C)CO)S(=O)(=O)c1ccc(C)cc1 | inactive | inactive | inactive
COc1cccc(S(=O)(=O)N[C@H]2CC[C@H](CC(=O)NC3CCC3)O[C@H]2CO)c1 | inactive | inactive | inactive
O=C(C[C@@H]1CC[C@H](NC(=O)CN2CCOCC2)[C@@H](CO)O1)NCc1cccc(F)c1 | inactive | inactive | inactive
CC(C)C#Cc1cnc2c(c1)C(=O)N([C@@H](C)CO)C[C@@H](C)[C@@H](CN(C)S(=O)(=O)c1cn(C)cn1)O2 | inactive | inactive | inactive
C[C@H](CO)N1C[C@H](C)[C@@H](CN(C)Cc2ccc(-c3ccccc3)cc2)Oc2ccc(NC(=O)c3ccncc3)cc2CC1=O | inactive | inactive | inactive
CCS(=O)(=O)Nc1ccc2c(c1)C(=O)N(C)[C@H]1CC[C@@H](CC(=O)N3CCN(C)CC3)O[C@@H]1CO2 | inactive | inactive | inactive
COc1ccc(S(=O)(=O)N(C)C[C@H]2Oc3ccc(NC(=O)Nc4c(C)noc4C)cc3CC(=O)N([C@H](C)CO)C[C@@H]2C)cc1 | inactive | inactive | inactive
O=C(O)[C@@H]1[C@@H]2CC[C@@H](C2)[C@H]1C(=O)O | inactive | inactive | inactive
C[C@H](NC(=O)C[C@@H]1CC[C@H](NC(=O)CN2CCOCC2)[C@H](CO)O1)c1ccccc1 | inactive | inactive | inactive
C[C@H](CO)N1C[C@H](C)[C@@H](CN(C)S(=O)(=O)c2ccc(F)cc2)OCCCC[C@H](C)Oc2ccc(NC(=O)c3ccccc3)cc2C1=O | inactive | inactive | inactive
Cc1noc(C)c1S(=O)(=O)Nc1ccc2c(c1)CC(=O)N([C@@H](C)CO)C[C@H](C)[C@@H](CN(C)S(=O)(=O)c1c(C)noc1C)O2 | inactive | inactive | inactive
C[C@@H]1CCCCO[C@@H](CN(C)Cc2ccncc2)[C@H](C)CN([C@H](C)CO)C(=O)c2cc(NS(=O)(=O)c3ccc(Cl)cc3)ccc2O1 | inactive | inactive | inactive
CO[C@@H](CN(C)S(=O)(=O)c1cccc(Cl)c1)[C@@H](C)CN([C@@H](C)CO)S(=O)(=O)c1cccc(Cl)c1 | inactive | inactive | inactive
Cc1ccc(S(=O)(=O)N(C)C[C@H]2Oc3cc(C#Cc4ccccc4)ccc3S(=O)(=O)N([C@H](C)CO)C[C@H]2C)cc1 | inactive | inactive | inactive
COCC(=O)N(C)C[C@@H]1Oc2cc(C#C[C@@H](C)O)ccc2S(=O)(=O)N([C@H](C)CO)C[C@H]1C | inactive | inactive | inactive
O=C(Nc1ccc(C(=O)Nc2ccc(C(=O)Nc3ccc(S(=O)(=O)O)c4cc(S(=O)(=O)O)cc(S(=O)(=O)O)c34)cc2)cc1)Nc1ccc(C(=O)Nc2ccc(C(=O)Nc3ccc(S(=O)(=O)O)c4cc(S(=O)(=O)O)cc(S(=O)(=O)O)c34)cc2)cc1 | inactive | inactive | inactive
C[C@H]1CN([C@@H](C)CO)C(=O)CCCn2nncc2CO[C@H]1CN(C)S(=O)(=O)c1ccc2ccccc2c1 | inactive | inactive | inactive
CO[C@H]1CN(C)C(=O)c2ccc(NS(=O)(=O)c3cn(C)cn3)cc2OC[C@H](C)N(CCC(F)(F)F)C[C@@H]1C | inactive | inactive | inactive
C[C@@H]1CCCCO[C@@H](CN(C)C(=O)Cc2ccccc2)[C@@H](C)CN([C@H](C)CO)C(=O)c2cc(NC(=O)Nc3cccc4ccccc34)ccc2O1 | inactive | inactive | inactive
C[C@H](CO)N1C[C@H](C)[C@@H](CN(C)S(=O)(=O)c2cn(C)cn2)OCCCC[C@H](C)Oc2ccc(NC(=O)Nc3ccc(C(F)(F)F)cc3)cc2C1=O | active | inactive | inactive
CC(=O)Oc1cccc2c1C(=O)c1c(OC(C)=O)cc(C(=O)O)cc1C2=O | inactive | inactive | inactive
C[C@H]1CCCCO[C@@H](CN(C)S(=O)(=O)c2ccc(F)cc2)[C@@H](C)CN([C@@H](C)CO)C(=O)c2cc(NS(=O)(=O)c3cn(C)cn3)ccc2O1 | inactive | inactive | inactive
